Hit rate of the full screen: of about 150,000 compounds, about 540 (0.36%) showed an effect of 50% or more. The list shows a part of the results.
Each compound was assayed on Plasmodium falciparum (assay: Primary screen in NF54 nanoGlo assay, in single point, at 2uM, 72h; a lower Z score goes with more inhibition). Settings: timepoint 72 hour.
Format: functional, Erythrocyte
With `COc1cccc(CN2C(=O)C3(CCOCC3)C[C@H]2c2nnnn2C(C)(C)C)c1` the “% Inhibition” value was -2% and the Z score was 0.25. `CCN1C[C@@H](C(=O)N(Cc2ccccc2)c2ccccc2)CC1=O` was tested, and the “% Inhibition” value was -9% and the Z score was 1.71. `Cc1cc(CNC(=O)Cc2cnc3c(C)cccn23)n(C)n1` was tested, and the “% Inhibition” value was 19% and the Z score was -2.46. In the case of `CN1C[C@H](NC(=O)C(=O)NC2CCCC2)C[C@H]1CO`, the “% Inhibition” value is reported as -9% and the Z score is reported as 1.61. In the case of `Cc1cc(OCc2ccn(C3CCCC3)n2)ccc1C#N`, the “% Inhibition” value is reported as -8% and the Z score is reported as 1.51. In the case of `Cn1ccc(C(=O)N2Cc3ccccc3-c3ccccc32)cc1=O`, the “% Inhibition” value is reported as -9% and the Z score is reported as 1.39. `C=CCNC(=O)NCc1ccc(C)nc1OC` was tested, and the “% Inhibition” value was -17% and the Z score was 2.78. `O=C(NCc1ccco1)C(=O)Nc1nccs1` was tested, and the “% Inhibition” value was -8% and the Z score was 1.02. In the case of `COc1ccc(N2CCN(C(=O)c3nn(-c4ccc(C)cc4)c(=O)n(C)c3=O)CC2)cc1`, the “% Inhibition” value is reported as -16% and the Z score is reported as 1.51. In the case of `CCCC[C@H]1CCCN1C(=O)c1cccc(-c2ccco2)c1`, the “% Inhibition” value is reported as -28% and the Z score is reported as 3. In the case of `O=C(NC1CC2CC2C1)C1CCc2cn[nH]c2C1` (stereo not given), the “% Inhibition” value is reported as -1% and the Z score is reported as 0.23. With `O=C(Nc1nc(C(=O)NCCc2ccncc2)cs1)c1cc(F)cc(F)c1` the “% Inhibition” value was 15% and the Z score was -2.85. With `Cn1nncc1C(=O)N[C@@](C)(CO)c1cccc(Br)c1` the “% Inhibition” value was -13% and the Z score was 2.65. In the case of `O=C(c1cncc(F)c1)N1CC(Cn2cncn2)C1`, the “% Inhibition” value is reported as -9% and the Z score is reported as 1.14. `OC1CCN(c2nc3nonc3nc2NC2CCCC2)CC1` was tested, and the “% Inhibition” value was -4% and the Z score was 0.63. `COCCOCC(=O)N1CCC[C@H](c2[nH]ncc2-c2ccc(F)cc2)C1` was tested, and the “% Inhibition” value was -7% and the Z score was 0.98. In the case of `C[C@H]1C(=O)Nc2ccccc2CN1C(=O)c1cncn1C`, the “% Inhibition” value is reported as -15% and the Z score is reported as 2.41. With `Nc1ccc(S(=O)(=O)N2CCCC2)cc1NC(=O)C1CC=CC1` the “% Inhibition” value was -4% and the Z score was 0.62. `C[C@H]1CN(C(=O)c2cnc(C(C)(C)C)nc2)c2ccccc2C(=O)N1` was tested, and the “% Inhibition” value was -14% and the Z score was 2.5. In the case of `O=C(NC[C@H]1O[C@@H](CO)[C@@H](O)[C@H]1N1CCN(c2ccccn2)CC1)Nc1ccsc1`, the “% Inhibition” value is reported as -13% and the Z score is reported as 1.65. With `Cc1cc(Cl)cc(C(=O)NCCOCC(N)=O)c1` the “% Inhibition” value was -18% and the Z score was 3.37. For `O=c1[nH]nc(CNc2nccc(OCc3ccccc3)n2)[nH]1`, the “% Inhibition” value was -6% and the Z score was 0.67. `CCn1cc(-c2cc(-c3cnn(C)c3)c(C#N)c(N)n2)c2ccccc21` was tested, and the “% Inhibition” value was -5% and the Z score was 0.62. With `N#CC1(NC(=O)c2ccncc2Cl)CCCC1` the “% Inhibition” value was 34% and the Z score was -4.52. For `Cn1nccc1-n1nc(C(F)(F)F)c2c1CCCC2`, the “% Inhibition” value was -12% and the Z score was 1.61. `Cc1ccc(-c2nc(C)c(C(C)C)c(N3CCN(C(=O)Nc4cccc5ccccc45)CC3)n2)cc1` was tested, and the “% Inhibition” value was 13% and the Z score was -1.45. In the case of `CC(C)C[C@@H]1NC2(CCN(S(=O)(=O)c3ccccc3)CC2)N(Cc2cccc(C(F)(F)F)c2)C1=O`, the “% Inhibition” value is reported as -12% and the Z score is reported as 2.3. For `Cc1c(Cl)c(C(=O)N2CCNC(C)C2C)nn1C` (stereo not given), the “% Inhibition” value was -16% and the Z score was 2.29. With `CCC(=O)N1CCc2cc(CNC(=O)c3ccnn3C)ccc21` the “% Inhibition” value was -8% and the Z score was 1.49. For `Cc1c(Br)cncc1C(=O)NC(C)(C)C(C)(F)F`, the “% Inhibition” value was 4% and the Z score was -0.64. `O=C(COCc1ccccc1)N1CC[C@@]2(CCCN(CC3CC3)C2=O)C1` was tested, and the “% Inhibition” value was -5% and the Z score was 0.77. With `COc1ccc(-c2noc(-c3cccnc3NCCc3ccccc3)n2)cc1` the “% Inhibition” value was -3% and the Z score was 0.5. With `CO[C@@H](C(=O)N1CC2CC2C1)c1ccccc1` (stereo not given in full) the “% Inhibition” value was 2% and the Z score was -0.46. With `O=C(CC1N=C(O)N(Cc2ccccc2Cl)C1=O)N1CCOC(c2ccccc2)C1` (stereo not given) the “% Inhibition” value was -8% and the Z score was 0.88. `Fc1ccc(Br)c(CNCCc2nnc3n2CCC3)c1` was tested, and the “% Inhibition” value was -14% and the Z score was 1.54. With `C=CCC1(S(=O)(=O)N[C@H]2CCc3cc(F)ccc32)CC1` the “% Inhibition” value was -3% and the Z score was 0.51. For `COc1ccc(C)cc1S(=O)(=O)N1CCn2nc(CNC(C)=O)cc2C1`, the “% Inhibition” value was -21% and the Z score was 2.78. For `Cc1[nH]c2ccccc2c1[C@@H](O)CN1CCC2(CC1)OCCO2`, the “% Inhibition” value was -2% and the Z score was 0.38. For `O=C(Cc1ccccn1)N1CCN(c2ccc3nccnc3n2)CC1`, the “% Inhibition” value was 2% and the Z score was -0.22. For `C#C[C@H](CO)NC(=O)Nc1cccc(C)n1`, the “% Inhibition” value was -12% and the Z score was 1.77. In the case of `CCCn1nc(-c2ccc(C(N)=O)cc2)nc1CCn1c(C)cccc1=O`, the “% Inhibition” value is reported as -8% and the Z score is reported as 1.67. In the case of `CCCc1cc([C@@H]2CCCN2Cc2ccc(C)cc2C)no1`, the “% Inhibition” value is reported as -19% and the Z score is reported as 2.6. With `CN(CC1CCCC1)C(=O)[C@@H]1CC=CCC1` the “% Inhibition” value was -11% and the Z score was 1.4. In the case of `COCC1(C2CCC2)CN(C(=O)NCc2ccccc2S(N)(=O)=O)C1`, the “% Inhibition” value is reported as -7% and the Z score is reported as 1.16. `OCC1(Nc2ccc(Cl)cn2)CCC1` was tested, and the “% Inhibition” value was -8% and the Z score was 0.85. `COC(=O)[C@H]1CN(c2cc(C)nc(C)n2)C[C@@H]1c1ccc(O)cc1` was tested, and the “% Inhibition” value was 5% and the Z score was -0.76. With `Nc1ccnc(N2CCC3(CC2)c2nc[nH]c2CCN3C(=O)C2CCC2)n1` the “% Inhibition” value was -5% and the Z score was 0.67. In the case of `Cc1nn(C)cc1[C@H](C)NS(=O)(=O)CCc1ccc2c(c1)CCO2`, the “% Inhibition” value is reported as -3% and the Z score is reported as 0.39. With `COc1cc2c(cc1C(c1ccccc1)(c1ccccc1)[C@H]1C=CC=CC1)NC(C)(C)C=C2C` the “% Inhibition” value was -5% and the Z score was 0.95. `CCN1CCN(c2nc3ncn(CC(=O)Nc4ccc(C(C)=O)cc4)c(=O)c3s2)CC1` was tested, and the “% Inhibition” value was -7% and the Z score was 1.06. With `O=C(Nc1ncc(C(O)(C(F)(F)F)C(F)(F)F)s1)c1ccccc1` the “% Inhibition” value was 6% and the Z score was -0.61. For `Cc1nc(Cc2c[nH]c(=O)[nH]c2=O)n(C(C)(C)C)n1`, the “% Inhibition” value was -9% and the Z score was 1.62. `CCc1nnc(NC(=O)CC2CC3CCC2C3)s1` (stereo not given) was tested, and the “% Inhibition” value was 9% and the Z score was -1.08. `Cc1nc(-c2cc(S(=O)(=O)NC3CCCCC3)c(C)n2C)sc1C` was tested, and the “% Inhibition” value was -14% and the Z score was 2.25. In the case of `O=C(O)[C@H]1CN(c2nccc(N3CCC(O)CC3)n2)C[C@@H]1c1ccncc1`, the “% Inhibition” value is reported as -4% and the Z score is reported as 0.71. For `CC(NC(C)c1cccs1)C(=O)NC1CCCC1` (stereo not given), the “% Inhibition” value was -5% and the Z score was 0.65. With `COC(=O)CC(C)NC(=O)CC(C)NC(=O)C1CCCC1` (stereo not given) the “% Inhibition” value was -9% and the Z score was 1.14. `Cc1cccc(Cn2cc(-c3cnn(Cc4cccc(C)c4)c3)cn2)c1` was tested, and the “% Inhibition” value was -4% and the Z score was 0.36. With `O=C(Nc1nccs1)N1CCC[C@H]1c1ccc2c(c1)OCCCO2` the “% Inhibition” value was -7% and the Z score was 1.32. With `O=C(CN(CCN1CCOCC1)C(=O)c1ccc(Br)cc1)N(CCc1ccccc1)Cc1ccco1` the “% Inhibition” value was -7% and the Z score was 1.04. `COCC[C@H](C)NC(=O)Nc1cc(C)ccc1Br` was tested, and the “% Inhibition” value was -5% and the Z score was 0.83. `CC(C)[C@@H](C(=O)NCc1ccc(C2CCC2)cc1)N1CCCS1(=O)=O` was tested, and the “% Inhibition” value was 1% and the Z score was -0.18. `NC(=O)c1ccc(-c2ccc(C(=O)N3C[C@H]4C[C@H](O)[C@H](O)C[C@H]4C3)cc2)o1` was tested, and the “% Inhibition” value was -9% and the Z score was 0.86. For `C[C@H](NCc1ccc(C2CC2)cc1F)c1nccs1`, the “% Inhibition” value was -11% and the Z score was 1.16. With `CC(C)CCN1C(=O)[C@@]2(CC(=O)Nc3c2c(=O)[nH]n3C(C)C)c2ccccc21` the “% Inhibition” value was -1% and the Z score was 0.12. With `CN(CC1(O)CCC1)c1ccc2ccccc2n1` the “% Inhibition” value was -7% and the Z score was 0.75. For `Cc1cccn2c(=O)c(C(=O)NCCCN3CCCC3=O)c(O)nc12`, the “% Inhibition” value was -15% and the Z score was 1.86. `CC[C@](C)(NC(=O)c1cnc(C)cn1)C(=O)OC` was tested, and the “% Inhibition” value was -3% and the Z score was 0.34. For `O=C1CCN(S(=O)(=O)c2cc(F)cc(Cl)c2)C2CCCC12` (stereo not given), the “% Inhibition” value was -1% and the Z score was 0.21. With `COCCCNC(=O)[C@H](C)S(=O)(=O)c1ccc(F)c(Cl)c1` the “% Inhibition” value was 11% and the Z score was -1.5. `CCOC(=O)N1CC[C@H](NC2(c3cc(F)ccc3F)CC2)C1` was tested, and the “% Inhibition” value was -9% and the Z score was 1.36. `O=C(Cn1cc2c(n1)CCCCC2)Nc1c(F)c(F)c(F)c(F)c1F` was tested, and the “% Inhibition” value was -7% and the Z score was 1.26. In the case of `COc1cc(Cl)cc(C(=O)N2CC[C@](O)(C3CC3)[C@@H](C)C2)c1`, the “% Inhibition” value is reported as -6% and the Z score is reported as 0.89. For `Cc1ccccc1CNC(=O)N1CC[C@H]2[C@H](CCC(=O)N2CCCO)C1`, the “% Inhibition” value was 3% and the Z score was -0.64. `CN(CC(O)COc1ccccc1)C(CNC(=O)OC(C)(C)C)C1CC1` (stereo not given) was tested, and the “% Inhibition” value was -11% and the Z score was 1.38. For `CCc1cccc(N(C)S(=O)(=O)C2COC2)c1`, the “% Inhibition” value was -10% and the Z score was 0.97. In the case of `CNC(=O)[C@H]1CN(C(=O)Cc2ccc(OC)c(Cl)c2)CC12CCCC2`, the “% Inhibition” value is reported as -1% and the Z score is reported as 0.16. With `O=C1COc2cc(C(=O)N3CCCCCO3)ccc2N1` the “% Inhibition” value was -4% and the Z score was 0.79. For `COc1ccc(CN=C2NCCCCN2)cc1Cl`, the “% Inhibition” value was 6% and the Z score was -0.83. In the case of `COc1cccc([C@H](CN2CCN(C(=O)Nc3cc(OC)c(OC)c(OC)c3)CC2)OCc2cccc(Cl)c2)c1`, the “% Inhibition” value is reported as -7% and the Z score is reported as 1.03. For `Fc1c(Cl)cccc1Cc1noc(-c2nc3n(n2)CCCN3)n1`, the “% Inhibition” value was -9% and the Z score was 1.65. With `CCCn1nnnc1CNc1cc(F)c(F)cc1Cl` the “% Inhibition” value was -3% and the Z score was 0.48. With `COc1ccc(N2CCN(C(=O)c3n[nH]c4c3CN(C)CC4)[C@@H](C)C2)cc1` the “% Inhibition” value was -2% and the Z score was 0.24. With `CN1CC2(CCN(C(=O)CCn3cnnn3)CC2)C[C@@H](c2ccccc2)C1=O` the “% Inhibition” value was 10% and the Z score was -1.34. `CN(C(=O)NCCCC(C)(C)CO)C1CC1` was tested, and the “% Inhibition” value was -12% and the Z score was 1.62.
